# Experimental data from article PMC4336329 (PLoS ONE, 2015).
# Hit rate of the full screen: of about 310,000 compounds, about 14,000 (4.5%) showed an effect of 50% or more. The effect is printed as a negative number. The list shows a part of the results.
# Biological target: human ether-à-go-go-related gene (hERG) potassium channel (human, UniProt Q12809)
# Assay: primary screen, population patch clamp on CHO cells stably expressing hERG
# 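Also: peak tail current of the secondary pulse compared with the same well before compound.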
# human ether-à-go-go-related gene (hERG) potassium channel, sequence (Q12809 whole entry, looked up): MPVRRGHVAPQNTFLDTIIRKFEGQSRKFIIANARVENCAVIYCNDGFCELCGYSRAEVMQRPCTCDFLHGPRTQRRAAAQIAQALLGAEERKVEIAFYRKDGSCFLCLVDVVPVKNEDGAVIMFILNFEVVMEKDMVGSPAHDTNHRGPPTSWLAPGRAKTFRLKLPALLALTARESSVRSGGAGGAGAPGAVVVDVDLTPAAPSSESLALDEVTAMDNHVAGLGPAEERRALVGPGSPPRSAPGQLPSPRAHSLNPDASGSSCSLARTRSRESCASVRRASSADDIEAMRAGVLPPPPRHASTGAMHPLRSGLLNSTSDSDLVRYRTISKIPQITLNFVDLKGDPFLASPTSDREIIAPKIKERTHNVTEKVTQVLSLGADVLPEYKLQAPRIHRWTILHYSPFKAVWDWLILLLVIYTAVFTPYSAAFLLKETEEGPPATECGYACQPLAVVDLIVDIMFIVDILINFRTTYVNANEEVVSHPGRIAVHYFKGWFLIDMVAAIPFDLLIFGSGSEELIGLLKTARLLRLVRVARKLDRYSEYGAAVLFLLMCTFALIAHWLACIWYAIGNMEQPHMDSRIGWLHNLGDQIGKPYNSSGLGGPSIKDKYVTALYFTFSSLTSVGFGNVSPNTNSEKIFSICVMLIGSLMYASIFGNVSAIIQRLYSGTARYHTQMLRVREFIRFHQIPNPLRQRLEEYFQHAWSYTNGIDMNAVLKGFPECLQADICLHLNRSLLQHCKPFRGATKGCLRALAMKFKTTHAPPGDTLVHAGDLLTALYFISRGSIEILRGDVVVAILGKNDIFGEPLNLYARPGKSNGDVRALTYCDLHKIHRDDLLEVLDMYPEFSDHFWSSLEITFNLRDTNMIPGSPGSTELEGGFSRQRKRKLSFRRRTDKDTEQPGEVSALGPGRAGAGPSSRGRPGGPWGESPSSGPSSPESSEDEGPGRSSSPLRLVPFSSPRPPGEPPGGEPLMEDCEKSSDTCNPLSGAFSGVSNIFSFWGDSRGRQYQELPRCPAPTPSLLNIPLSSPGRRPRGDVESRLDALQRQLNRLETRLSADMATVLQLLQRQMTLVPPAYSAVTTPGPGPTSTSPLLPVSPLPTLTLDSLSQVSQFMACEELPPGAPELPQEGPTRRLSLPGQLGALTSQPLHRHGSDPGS
row,Structure (SMILES),"hERG current change (%, negative = inhibition) at 10uM"
1,O=C(NCCN1C(=O)S/C(=C/c2cccnc2)C1=O)C1CC(=O)N(Cc2ccccc2)C1 (centres unmarked),14.4%
2,CC(C)c1ccc(CN(C(=O)c2ccco2)C2CCS(=O)(=O)C2)cc1 (centres unmarked),-20.2%
3,Cc1nc([N+](=O)[O-])cn1CC(=O)c1ccc(Br)cc1,15.7%
4,COCCCNC(=O)C1CC(=O)N(Cc2ccc(OC)cc2)C1 (centres unmarked),21.6%
5,COc1cc2c(cc1OC)C(C(=O)NCCC(C)C)C1CCCCN1C2=O (centres unmarked),-4.23%
6,O=C1COc2ccc(C(=O)COC(=O)c3ccc(S(=O)(=O)C(F)F)cc3)cc2N1,-40.6%
7,CC(C)[C@H](NC(=O)c1ccco1)C(=O)OCC(=O)Nc1ccc(F)cc1,-10.6%
8,Nn1c(Cc2ccccc2F)nnc1SCC(=O)Nc1cccc(S(=O)(=O)NC2=NCCCCC2)c1,0.139%
9,CSc1nnc(-c2cc3c(-c4ccccc4)nn(C)c3s2)n1C,-17.1%
10,Cc1ccc(S(=O)(=O)c2nc(-c3ccco3)oc2N2CCC(C)CC2)cc1,-11.7%
11,CCn1c(SCC(=O)Nc2cccc(S(=O)(=O)N(C)c3ccccc3)c2)nnc1C1CC1,-44.1%
12,COc1cc(CC(=O)OCC(=O)NCCc2ccc(S(N)(=O)=O)cc2)cc(OC)c1OC,-2.43%
13,Cc1cccc(C(=O)NC(NCCc2ccccc2)C(Cl)(Cl)Cl)c1 (centres unmarked),4.3%
14,CCO[C@H]1OC(C(=O)Nc2ccccc2)=C[C@@H](c2cn(C(C)=O)c3ccccc23)[C@@H]1CCCO,-62.5%
15,O=C(c1cc2c(ccc3ccccc32)oc1=O)N1CCN(CCO)CC1,22%
16,Cc1ccc(NC(=O)C2C(=O)N(C)c3ccccc32)cc1 (centres unmarked),2.76%
17,Nc1cccc(Oc2ccc([N+](=O)[O-])cc2)c1,12.6%
18,C/C=C/c1ccc(OCCCCN2C(=O)NC(C)(C)C2=O)c(OC)c1,-7.09%
19,COc1cc(NC(=O)c2nccnc2N)cc(C(=O)Nc2cccc(C(F)(F)F)c2)c1,-3.31%
20,COc1ccc(Oc2coc3c(CN4CCOCC4)c(O)ccc3c2=O)cc1,-7.19%
21,C/C(CCc1ccccc1)=N\NC(=O)c1ccc(CN2CCOCC2)cc1,8.55%
22,CCN1C(=O)CC(C(=O)NCCc2ccc(S(N)(=O)=O)cc2)SC1=Nc1ccc(OC)cc1 (centres unmarked),7.2%

row,Structure (SMILES),"hERG current change (%, negative = inhibition) at 10uM"
1,CCCn1c(=O)c2ccccc2n2c(=S)[nH]nc12,26.2%
2,COc1ccccc1NC(=O)CC1C(=O)Nc2ccccc2N1C(=O)c1ccccc1 (centres unmarked),15.5%
3,Cc1ccc2sc(NC(=O)CN3C(=O)CCC3=O)nc2c1C,-6.52%
4,O=C(N/N=C/c1cccnc1)c1ccccc1Br,24.4%
5,CCN(CC)S(=O)(=O)c1cccc(NC(=O)c2ccc(Sc3nncn3C)c([N+](=O)[O-])c2)c1,-1.36%
6,O=C(O)CSCC(=O)Nc1cccc(C(F)(F)F)c1,-6.67%
7,COc1ccc(CN(Cc2cccn2C)S(=O)(=O)c2ccc(C)cc2)cc1,-5.52%
8,CCOC(=O)c1sc(Nc2ccccc2Cl)nc1C.O=C(O)C(=O)O,2.81%
9,Cc1ccc(S(=O)(=O)NCCC(=O)NCc2ccccn2)cc1,11.1%
10,c1ccc(OCc2nn3c(-c4n[nH]c5c4CCC5)nnc3s2)cc1,1.77%
11,COc1ccccc1N1CCN(C(=O)c2cc(-c3ccco3)on2)CC1,-26.3%
12,CN(N)C(=S)Nc1ccc(Cl)cc1,12.3%
13,O=C(O)CCCN1C(=O)/C(=C\C(Cl)=C\c2ccccc2)SC1=S,13.6%
14,O=C(NC1CC(=O)N(c2ccc(Cl)cc2)C1)C1CC1 (centres unmarked),-18.2%
15,CC(CC(=O)Nc1cccc(Cl)c1)c1ccccc1 (centres unmarked),-6.32%
16,Cc1cccc(Oc2ncnc(N)c2[N+](=O)[O-])c1,-8.79%
17,O=C(COc1ccccc1[N+](=O)[O-])Nc1cccnc1,14.5%
18,Cc1cccc(C)c1N1C(=O)CC(N2CCSCC2)C1=O (centres unmarked),-25.6%
19,O=C1c2ccccc2C(=O)N1OCc1cccc(Cl)c1,0.197%
20,Cc1[nH]cnc1CSCc1ccc(F)cc1.Cl,-28.5%
21,Cc1sc2nc(CSCC(=O)NC3CCCCC3)[nH]c(=O)c2c1C,-12.7%
22,O=C(Cc1ccc(-c2ccccc2)cc1)Nc1ccccc1,19.1%
